Laboratory results taken from publication PMC7819943, “Rice protein-binding microarrays: a tool to detect cis-acting elements near promoter regions in rice”.
Some of the results follow.

What follows are sequences tested against T1, OsWOX13 (Oryza sativa, UniProt Q5QMM3 1-267) (assay: protein-binding microarray (RPBM); PBS, 2% BSA, 51.3 ng/ul salmon testes DNA, 50 uM zinc acetate, 200 nM TF, 25 C, 1 h; high values mean tight binding). Settings: protein: recombinant; tags: N-terminal polyhistidine and DsRed monomer fusion (pET32a); label: CyDye5-dUTP incorporated in the synthesized complementary strand; 3' TTTTT single-stranded linker to array surface; dsDNA, one strand shown.
T1 sequence: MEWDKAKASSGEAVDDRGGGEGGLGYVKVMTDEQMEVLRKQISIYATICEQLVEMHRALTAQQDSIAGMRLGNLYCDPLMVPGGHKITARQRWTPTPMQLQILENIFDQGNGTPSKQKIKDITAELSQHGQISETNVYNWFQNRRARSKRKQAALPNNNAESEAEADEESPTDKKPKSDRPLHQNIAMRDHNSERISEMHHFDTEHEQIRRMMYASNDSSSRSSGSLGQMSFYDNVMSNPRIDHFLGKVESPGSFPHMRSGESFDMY
Summary of the method: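 Binding signal is reported as fluorescence intensity per feature (arbitrary units) from an Axon 4000B scanner. Incubation used 200 nM of each Ni–NTA-purified, N-terminally polyhistidine- and DsRed-fused transcription factor from E. coli BL21-CodonPlus on a double-stranded custom Agilent array for 1 h at 25 °C, with 50 µM zinc acetate in the buffer, followed by washing.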
With “TGATATTAATTAGAACTCATAAATCAACAATTAAGATAACCGGAGTCACCTAGTGCAG” the binding signal was 4420 fluorescence intensity (a.u.). With “GTGATTGGCCACCTTCACCTCATTGGCTCCCTCCCGTATGCGGAGTCACCTAGTGCAG” the binding signal was 37700 fluorescence intensity (a.u.). In the case of “GAGGAAATTAAAATTTCCTTTAAAATTCATTGGCCGAGAACGGAGTCACCTAGTGCAG”, the binding signal is reported as 4540 fluorescence intensity (a.u.). In the case of “AGCTAATTAAGCTATAGCTATATAGCTCGCAGTTGGTCGCCGGAGTCACCTAGTGCAG”, the binding signal is reported as 17600 fluorescence intensity (a.u.). “TTATAATTATATTATAATTGTCTGCTCTAATTTCGTTACTCGGAGTCACCTAGTGCAG” was tested, and the binding signal was 44400 fluorescence intensity (a.u.). For “AAAGTAATTAGTGTTTTCTTGATTAGTCTTTTCCTTGTATCGGAGTCACCTAGTGCAG”, the binding signal was 42700 fluorescence intensity (a.u.). In the case of “GATTGATGCAATTTAAATTATACTTAGTATTGGTGTATAACGGAGTCACCTAGTGCAG”, the binding signal is reported as 11400 fluorescence intensity (a.u.). For “TGTGATAGAGAATCAAGTAGATATCGATCAGATAATATCTCGGAGTCACCTAGTGCAG”, the binding signal was 5210 fluorescence intensity (a.u.). In the case of “ACTTGATTTGGTTTCTGACCAAATTAAGAGAATATCTGGACGGAGTCACCTAGTGCAG”, the binding signal is reported as 26300 fluorescence intensity (a.u.). For “AATTAATCAAGTGCTAGTGGATGGGTTCCGACCTCCGAACCGGAGTCACCTAGTGCAG”, the binding signal was 3550 fluorescence intensity (a.u.). “GTGTAGATTTATTAACATCTATATAAATGTGGGCAATGCTCGGAGTCACCTAGTGCAG” was tested, and the binding signal was 8420 fluorescence intensity (a.u.). With “AATAATTGCTATATTTTGGGGCGTAGGTAGTAGTAGATAACGGAGTCACCTAGTGCAG” the binding signal was 12900 fluorescence intensity (a.u.). “GGGAATAAAATTAATTAAACAATGTAGATACTCGCCCTACCGGAGTCACCTAGTGCAG” was tested, and the binding signal was 20600 fluorescence intensity (a.u.). With “CCGTGCTTGATTGGCAAATGGATTAAAGAACCGCTTTTCTCGGAGTCACCTAGTGCAG” the binding signal was 42700 fluorescence intensity (a.u.). For “CCGAACGATAATTATGTTCGATTTGTAAAATCCCAATGACCGGAGTCACCTAGTGCAG”, the binding signal was 16500 fluorescence intensity (a.u.). With “TTTGCAAATCATCACTTTTCATGCTACGGGCATGCAAATCCGGAGTCACCTAGTGCAG” the binding signal was 3290 fluorescence intensity (a.u.). “GCAAGGGTAATTACAAATTAAATAATTAAGTCATAATAAGCGGAGTCACCTAGTGCAG” was tested, and the binding signal was 31100 fluorescence intensity (a.u.). With “TGTAATTAGCCAGTGATTTGCTTAGAAAATCAACTCCATTCGGAGTCACCTAGTGCAG” the binding signal was 34300 fluorescence intensity (a.u.). “TATATATATATATATATACTGAAAACCTGATAATTATTGTCGGAGTCACCTAGTGCAG” was tested, and the binding signal was 6890 fluorescence intensity (a.u.). “CGACTTTAACTGATTAATCGGTGAAAACCGACTAATCCACCGGAGTCACCTAGTGCAG” was tested, and the binding signal was 15600 fluorescence intensity (a.u.). With “ATAAATTTTGGGCCGTAATTGTGTTACGGTGGATGAGAGGCGGAGTCACCTAGTGCAG” the binding signal was 14300 fluorescence intensity (a.u.). For “TTGTTTAACTGACATTTGGGTCCCGCATATTTGTTTAATCCGGAGTCACCTAGTGCAG”, the binding signal was 6740 fluorescence intensity (a.u.). With “TCTAATTTCATAACATACAAACTCAAAACTGCTACTCCCTCGGAGTCACCTAGTGCAG” the binding signal was 11500 fluorescence intensity (a.u.). In the case of “AGTGATGTAAAATCTTTAGTTCTGTATGATTTTGTATCGTCGGAGTCACCTAGTGCAG”, the binding signal is reported as 3320 fluorescence intensity (a.u.). For “TTTATAATTAGTATTCAAACATCCGATGTGGTAGGGACTTCGGAGTCACCTAGTGCAG”, the binding signal was 16900 fluorescence intensity (a.u.). “CTTGATTGTTCTTTCTTGCTCAAATGCCGGCCTGTGTTGGCGGAGTCACCTAGTGCAG” was tested, and the binding signal was 53200 fluorescence intensity (a.u.). In the case of “GTGCTCTTTAATTATCACTTTGTGCGCACTTTTCTTTGATCGGAGTCACCTAGTGCAG”, the binding signal is reported as 6410 fluorescence intensity (a.u.). With “AATTCAATTATTTACTCCAAAATTTATACTACTAGAACCACGGAGTCACCTAGTGCAG” the binding signal was 11500 fluorescence intensity (a.u.). In the case of “CTTAACCAAAATCAGCATCCCAATTCCCAAACCTCTCAAGCGGAGTCACCTAGTGCAG”, the binding signal is reported as 3720 fluorescence intensity (a.u.). With “TCAGCTTATTGACTTATATGATTTATAAGCCAATGGATTTCGGAGTCACCTAGTGCAG” the binding signal was 11100 fluorescence intensity (a.u.). With “ATACGGTGAATAAATTTATACAAACTGCAACTCCAATATCCGGAGTCACCTAGTGCAG” the binding signal was 10200 fluorescence intensity (a.u.). With “TTGGCCTAATTGCTAACTGCAATTTATCTGAAAATTGTTTCGGAGTCACCTAGTGCAG” the binding signal was 26200 fluorescence intensity (a.u.). “CAATAATAGGATTAGAATGAAGAAAGCACCCCTGAGCTTGCGGAGTCACCTAGTGCAG” was tested, and the binding signal was 7340 fluorescence intensity (a.u.). “ATAATTATTTGTTTTCAGTCATGTATCTTCATCTTATACACGGAGTCACCTAGTGCAG” was tested, and the binding signal was 6340 fluorescence intensity (a.u.). “GCTAATGACATAACAACATACTAATAGGCCATGTCTGGATCGGAGTCACCTAGTGCAG” was tested, and the binding signal was 20900 fluorescence intensity (a.u.). In the case of “TTGTCGTACAATAATTGAAGTTCAAATTCAACGTCAACTTCGGAGTCACCTAGTGCAG”, the binding signal is reported as 5890 fluorescence intensity (a.u.). With “TGGTGCCAATTAGTTTTCTTGTGTAAATCTGAAGTTCTGACGGAGTCACCTAGTGCAG” the binding signal was 5750 fluorescence intensity (a.u.). In the case of “TTTCTCCAATTATATCATAATAACCATTTAACTTAAACAACGGAGTCACCTAGTGCAG”, the binding signal is reported as 4530 fluorescence intensity (a.u.). For “TACCAAATTAAGCCATTTTGATAGTGACCTCAGTAGATCCCGGAGTCACCTAGTGCAG”, the binding signal was 7940 fluorescence intensity (a.u.). “TAGAATTGATAATGTTTAACGCATTACTCTCGATTGGGAGCGGAGTCACCTAGTGCAG” was tested, and the binding signal was 19600 fluorescence intensity (a.u.). With “CGAATTTGCAAATTACGTATTGAGATCCCTAAACTTGATTCGGAGTCACCTAGTGCAG” the binding signal was 8840 fluorescence intensity (a.u.). In the case of “TCTGATTTAACTGCATTGCATTTGTGTCATTGACATGTGGCGGAGTCACCTAGTGCAG”, the binding signal is reported as 42600 fluorescence intensity (a.u.).
